Assay results from article PMC6919601, “Identification of Plasmodium dipeptidyl aminopeptidase allosteric inhibitors by high throughput screening” (PLoS ONE, 2019).
Hit rate of the full screen: of about 110,000 compounds, about 230 (0.21%) showed an effect of 50% or more. The list shows a part of the results.

biological target: DPAP1 (Plasmodium falciparum, UniProt Q8IIJ9); assay: primary screen, percent inhibition; read by cleavage of a fluorogenic dipeptide substrate; higher = more effect of the substance; set-up: species or system P. falciparum D10 trophozoite lysates; single well
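Note: 30 min substrate incubation versus DMSO and 10 µM JCP410 controls.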

Chain of DPAP1 (Q8IIJ9 whole entry, looked up): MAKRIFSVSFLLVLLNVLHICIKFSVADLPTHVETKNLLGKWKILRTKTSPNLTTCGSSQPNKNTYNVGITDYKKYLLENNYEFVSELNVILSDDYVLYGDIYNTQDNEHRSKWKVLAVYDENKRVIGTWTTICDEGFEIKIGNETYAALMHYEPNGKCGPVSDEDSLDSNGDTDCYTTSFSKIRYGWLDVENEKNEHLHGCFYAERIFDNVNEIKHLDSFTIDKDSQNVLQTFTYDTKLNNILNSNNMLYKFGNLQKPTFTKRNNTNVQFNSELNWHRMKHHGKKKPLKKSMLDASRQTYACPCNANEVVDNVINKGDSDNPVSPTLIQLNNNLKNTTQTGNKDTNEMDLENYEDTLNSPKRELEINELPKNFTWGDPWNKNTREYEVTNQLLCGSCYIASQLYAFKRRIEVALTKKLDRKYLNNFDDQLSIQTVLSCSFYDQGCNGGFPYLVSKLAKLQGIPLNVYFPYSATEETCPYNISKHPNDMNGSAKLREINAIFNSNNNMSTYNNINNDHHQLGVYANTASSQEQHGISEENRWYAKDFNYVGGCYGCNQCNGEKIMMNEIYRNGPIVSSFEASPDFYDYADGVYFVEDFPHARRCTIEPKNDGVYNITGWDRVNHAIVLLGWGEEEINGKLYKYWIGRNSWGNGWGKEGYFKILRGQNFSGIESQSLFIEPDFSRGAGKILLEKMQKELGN

| SMILES | % Inhibition @ 10 uM [%] |
| --- | --- |
| Cc1cccc(NC(=O)c2ccc(C(=O)c3ccccc3)o2)c1 | 2.09 |
| O=c1/c(=C/c2ccccc2Cl)sc2ncnn12 | 3.54 |
| CCc1ccccc1NC(=O)c1ccccc1C | 7.64 |
| CC(C)Oc1ccccc1C1C2=C(O)CC(C)(C)CC2=NC2=C1C(=O)CC(C)(C)C2 (centres unmarked) | -6.36 |
| CCOc1ccc(-c2csc(/C(C#N)=C/c3ccccc3F)n2)cc1 | 0.135 |
| O=C1c2ccccc2C(=O)N1Cc1ccccc1Cl | -1.03 |
| Cc1nc(-c2ccccc2)cn2c1nc1ccccc12 | 2.09 |
| Cc1c(Cl)cccc1NS(=O)(=O)c1cc(Cl)ccc1Cl | -0.856 |
| C=CCn1c(SCC(=O)N2CCOCC2)nc2sc(C)c(C)c2c1=O | -2.53 |
| O=C(CCCn1c2ccccc2c2cnnc(O)c21)NCC1CCCO1 (centres unmarked) | -2 |
| CN(C(=O)CSc1c2c(nc3ccccc13)CCC2)C1CCCCC1 | -11.3 |
| CC1CCN(C(=O)CSc2nc3c(c(=O)n2CCc2ccccc2)SC(C)C3)CC1 (centres unmarked) | 1.39 |
| O=C(c1cc(-c2ccc(Cl)c(Cl)c2)nc2ccccc12)N1CCOCC1 | 0.381 |
| COc1cc(OC)c(CN2CCC(O)CC2)cc1Br | -6.47 |
| COc1ccc(C(=O)N2CCN(Cc3ccc(Br)cc3)CC2)cc1OC | -4.26 |
| O=C(NCC1CCCO1)C(=O)NC1CC1 (centres unmarked) | -1.17 |
| COc1cc(OC)c(OC)cc1CN1CCN(Cc2ccc(Cl)cc2)CC1 | 0.873 |
| N#Cc1cccc(NC(=O)COc2ccccc2)c1 | -0.992 |
| Cn1cc(/C=C2\C(=O)NC(=O)N(c3ccc(Cl)cc3)C2=O)c2ccccc21 | 3.82 |
| COCCN1Cc2cccc(C(=O)N3CCN(C4CCCCC4)CC3)c2C1=O | 2.9 |
| C=CCn1c(SCc2ccc(C(=O)OC)cc2)nc2sc(C)c(C)c2c1=O | 1.39 |
| CCCCCC(=O)Nc1ccc(CC#N)cc1 | -1.61 |
| Cc1ccc(NC(=O)c2c(O)nc3ccccc3c2O)c(C)c1 | -11.4 |
| N#CC(C(=O)NC1CCCCC1)=C1CCCCC1 | -2.8 |
| O=C1CC(NCCc2ccc(Cl)cc2)C(=O)N1c1ccc(F)cc1 (centres unmarked) | -2.83 |
| O=S(=O)(c1ccc(-n2cccn2)cc1)N1CCn2c1nc1ccccc12 | 3.54 |
| CC(C)C[C@H](NC(=O)c1cccc(-c2cc(Cl)cc(Cl)c2)c1)C(=O)NCC#N | -3.69 |
| COc1ccc2cc(C(=O)O)c(=O)oc2c1 | -4.01 |
| Cc1c2cnn(CC(=O)NCC(C)c3ccccc3)c(=O)c2c(C)n1Cc1ccc(F)cc1 (centres unmarked) | -0.447 |
